# The other results are listed elsewhere or left out.
# B1: ArathEULS3 (Arabidopsis thaliana), Q945P1 (protein)
# chain: MEHHHQHHRHHQRDDGEDDRQSFGVPPPHVDAPPQPHGLYQSQPHFDPYAPTPQAPAPYRSETQFEPHAPPPYRSEPYFETPAPPPSFGHVSHVGHQSPNESYPPEHHRYGGYQQPSNSLLESHGDHSGVTHVAHHSSNQPQSSSGVYHKPDENRLPDNLAGLAGRATVKVYSKAEPNYNLTIRDGKVILAPADPSDEAQHWYKDEKYSTKVKDADGHPCFALVNKATGEAMKHSVGATHPVHLIRYVPDKLDESVLWTESKDFGDGYRTIRMVNNTRLNVDAYHGDSKSGGVRDGTTIVLWDWNKGDNQLWKIFPFILEQKLISEEDLNSAVDHHHHHH
# How the values were obtained:
# Test in all cases: glycan array binding signal (z-score within array); higher = stronger binding
# Conditions in all cases: glycan notation: IUPAC condensed, linker removed
# [1] = target: Neu5Ac(a2-3)[GalNAc(b1-4)]Gal(b1-4)Glc
# How it was run: (§1)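 Glycan array data were curated from 3228 arrays in the Consortium for Functional Glycomics database and kept only where the protein sequence was available. Glycan names were converted to IUPAC-condensed notation, and columns mapping to the same glycan were averaged. The binding signal is a within-array Z-score, averaged across arrays of the same protein sequence at different concentrations or buffers and across linkers. Negative Z-scores can be read as non-binding.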
# [2] = target: Neu5Ac(a2-3)[GalNAc(b1-4)]Gal(b1-4)GlcNAc
# How it was run: as §1
# [3] = target: Neu5Ac(a2-3)[GalNAc(b1-4)]Gal(b1-4)GlcNAc(b1-3)GalNAc
# How it was run: as §1
# [4] = target: Neu5Ac(a2-3)[Neu5Ac(a2-6)]GalNAc
# How it was run: as §1
# Neu5Ac(a2-6)Gal = target: Neu5Ac(a2-6)Gal
# How it was run: as §1
# [5] = target: Neu5Ac(a2-6)Gal(b1-3)GlcNAc(b1-3)[Gal(b1-4)GlcNAc(b1-6)]Gal(b1-4)Glc
# How it was run: as §1
# Neu5Ac(a2-6)Gal(b1-4)Glc = target: Neu5Ac(a2-6)Gal(b1-4)Glc
# How it was run: as §1
# [6] = target: Neu5Ac(a2-6)Gal(b1-4)GlcNAc
# How it was run: as §1
# [7] = target: Neu5Ac(a2-6)Gal(b1-4)GlcNAc(b1-2)Man(a1-3)Man(b1-4)GlcNAc(b1-4)GlcNAc
# How it was run: as §1
# [8] = target: Neu5Ac(a2-6)Gal(b1-4)GlcNAc(b1-2)Man(a1-3)[Gal(b1-4)GlcNAc(b1-2)Man(a1-6)]Man(b1-4)GlcNAc(b1-4)GlcNAc
# How it was run: as §1
# [9] = target: Neu5Ac(a2-6)Gal(b1-4)GlcNAc(b1-2)Man(a1-3)[GlcNAc(b1-2)Man(a1-6)]Man(b1-4)GlcNAc(b1-4)GlcNAc
# How it was run: as §1
# [10] = target: Neu5Ac(a2-6)Gal(b1-4)GlcNAc(b1-2)Man(a1-3)[GlcNAc(b1-2)Man(b1-4)GlcNAc(b1-2)Man(a1-6)]Man(b1-4)GlcNAc(b1-4)GlcNAc
# How it was run: as §1
# [11] = target: Neu5Ac(a2-6)Gal(b1-4)GlcNAc(b1-2)Man(a1-3)[Man(a1-6)]Man(b1-4)GlcNAc(b1-4)GlcNAc
# How it was run: as §1
# [12] = target: Neu5Ac(a2-6)Gal(b1-4)GlcNAc(b1-2)Man(a1-3)[Neu5Ac(a2-6)Gal(b1-4)GlcNAc(b1-2)Man(a1-6)]Man(b1-4)GlcNAc(b1-4)GlcNAc
# How it was run: as §1
# [13] = target: Neu5Ac(a2-6)Gal(b1-4)GlcNAc(b1-2)Man(a1-3)[Neu5Ac(a2-6)Gal(b1-4)GlcNAc(b1-2)Man(a1-6)]Man(b1-4)GlcNAc(b1-4)[Fuc(a1-6)]GlcNAc
# How it was run: as §1
# [14] = target: Neu5Ac(a2-6)Gal(b1-4)GlcNAc(b1-2)Man(a1-6)Man(b1-4)GlcNAc(b1-4)GlcNAc
# How it was run: as §1
# [15] = target: Neu5Ac(a2-6)Gal(b1-4)GlcNAc(b1-2)Man(a1-6)[Gal(b1-4)GlcNAc(b1-2)Man(a1-3)]Man(b1-4)GlcNAc(b1-4)GlcNAc
# How it was run: as §1
# [16] = target: Neu5Ac(a2-6)Gal(b1-4)GlcNAc(b1-2)Man(a1-6)[GlcNAc(b1-2)Man(a1-3)]Man(b1-4)GlcNAc(b1-4)GlcNAc
# How it was run: as §1
# [17] = target: Neu5Ac(a2-6)Gal(b1-4)GlcNAc(b1-2)Man(a1-6)[Man(a1-3)]Man(b1-4)GlcNAc(b1-4)GlcNAc
# How it was run: as §1
# [18] = target: Neu5Ac(a2-6)Gal(b1-4)GlcNAc(b1-3)Gal(b1-3)GlcNAc
# How it was run: as §1
# [19] = target: Neu5Ac(a2-6)Gal(b1-4)GlcNAc(b1-3)Gal(b1-4)GlcNAc
# How it was run: as §1
# [20] = target: Neu5Ac(a2-6)Gal(b1-4)GlcNAc(b1-3)Gal(b1-4)GlcNAc(b1-3)Gal(b1-4)GlcNAc
# How it was run: as §1
# [21] = target: Neu5Ac(a2-6)Gal(b1-4)GlcNAc(b1-3)Gal(b1-4)[Fuc(a1-3)]GlcNAc(b1-3)Gal(b1-4)[Fuc(a1-3)]GlcNAc
# How it was run: as §1
# [22] = target: Neu5Ac(a2-6)Gal(b1-4)GlcNAc(b1-3)GalNAc
# How it was run: as §1
# [23] = target: Neu5Ac(a2-6)Gal(b1-4)GlcNAc(b1-3)[Neu5Ac(a2-6)Gal(b1-4)GlcNAc(b1-6)]GalNAc
# How it was run: as §1
# [24] = target: Neu5Ac(a2-6)Gal(b1-4)GlcNAc(b1-6)GalNAc
# How it was run: as §1
# [25] = target: Neu5Ac(a2-6)Gal(b1-4)GlcNAc(b1-6)[Gal(b1-3)GlcNAc(b1-3)]Gal(b1-4)Glc
# How it was run: as §1
# [26] = target: Neu5Ac(a2-6)Gal(b1-4)GlcNAc6S
# How it was run: as §1
# Neu5Ac(a2-6)GalNAc = target: Neu5Ac(a2-6)GalNAc
# How it was run: as §1
# [27] = target: Neu5Ac(a2-6)GalNAc(b1-4)GlcNAc
# How it was run: as §1
# [28] = target: Neu5Ac(a2-6)GalNAc(b1-4)GlcNAc6S
# How it was run: as §1
# [29] = target: Neu5Ac(a2-6)GlcNAc(b1-4)GlcNAc
# How it was run: as §1
# [30] = target: Neu5Ac(a2-6)GlcNAc(b1-4)GlcNAc(b1-4)GlcNAc
# How it was run: as §1
# Neu5Ac(a2-8)Neu5Ac = target: Neu5Ac(a2-8)Neu5Ac
# How it was run: as §1
# [31] = target: Neu5Ac(a2-8)Neu5Ac(a2-3)Gal(b1-3)GalNAc(b1-4)[Neu5Ac(a2-8)Neu5Ac(a2-3)]Gal(b1-4)Glc
# How it was run: as §1
# [32] = target: Neu5Ac(a2-8)Neu5Ac(a2-3)Gal(b1-4)Glc
# How it was run: as §1
# [33] = target: Neu5Ac(a2-8)Neu5Ac(a2-3)[Gal(b1-3)GalNAc(b1-4)]Gal(b1-4)Glc
# How it was run: as §1
# [34] = target: Neu5Ac(a2-8)Neu5Ac(a2-3)[GalNAc(b1-4)]Gal(b1-4)Glc
# How it was run: as §1
# [35] = target: Neu5Ac(a2-8)Neu5Ac(a2-8)Neu5Ac
# How it was run: as §1
# [36] = target: Neu5Ac(a2-8)Neu5Ac(a2-8)Neu5Ac(a2-3)Gal(b1-4)Glc
# How it was run: as §1
# [37] = target: Neu5Ac(a2-8)Neu5Ac(a2-8)Neu5Ac(a2-3)[GalNAc(b1-4)]Gal(b1-4)Glc
# How it was run: as §1
# [38] = target: Neu5Ac(a2-8)Neu5Ac(a2-8)Neu5Ac(a2-8)Neu5Ac(a2-3)[GalNAc(b1-4)]Gal(b1-4)Glc
# How it was run: as §1
# [39] = target: Neu5Ac(b2-6)Gal(b1-4)GlcNAc
# How it was run: as §1
# Neu5Ac(b2-6)GalNAc = target: Neu5Ac(b2-6)GalNAc
# How it was run: as §1
# [40] = target: Neu5Ac9Ac(a2-3)Gal(b1-3)GlcNAc
# How it was run: as §1
# [41] = target: Neu5Ac9Ac(a2-3)Gal(b1-4)GlcNAc
# How it was run: as §1
# [42] = target: Neu5Ac9Ac(a2-6)Gal(b1-4)GlcNAc
# How it was run: as §1
# [43] = target: Neu5Gc(a2-3)Gal(b1-3)GlcNAc
# How it was run: as §1
# [44] = target: Neu5Gc(a2-3)Gal(b1-3)[Fuc(a1-4)]GlcNAc
# How it was run: as §1
# Neu5Gc(a2-3)Gal(b1-4)Glc = target: Neu5Gc(a2-3)Gal(b1-4)Glc
# How it was run: as §1
# [45] = target: Neu5Gc(a2-3)Gal(b1-4)GlcNAc
# How it was run: as §1
# [46] = target: Neu5Gc(a2-3)Gal(b1-4)[Fuc(a1-3)]GlcNAc
# How it was run: as §1
# [47] = target: Neu5Gc(a2-6)Gal(b1-4)GlcNAc
# How it was run: as §1
# Neu5Gc(a2-6)GalNAc = target: Neu5Gc(a2-6)GalNAc
# How it was run: as §1
# [48] = target: Neu5Gc(b2-6)Gal(b1-4)GlcNAc
# How it was run: as §1
binder,measurement,setting,value
B1,glycan array binding signal (z-score),[1],-0.328
same,glycan array binding signal (z-score),[2],-0.114
same,glycan array binding signal (z-score),[3],0.825
same,glycan array binding signal (z-score),[4],0.039
same,glycan array binding signal (z-score),Neu5Ac(a2-6)Gal,0.091
same,glycan array binding signal (z-score),[5],-0.294
same,glycan array binding signal (z-score),Neu5Ac(a2-6)Gal(b1-4)Glc,0.145
same,glycan array binding signal (z-score),[6],0.011
same,glycan array binding signal (z-score),[7],-0.085
same,glycan array binding signal (z-score),[8],-0.154
same,glycan array binding signal (z-score),[9],-0.23
same,glycan array binding signal (z-score),[10],-0.223
same,glycan array binding signal (z-score),[11],-0.158
same,glycan array binding signal (z-score),[12],-0.066
same,glycan array binding signal (z-score),[13],-0.433
same,glycan array binding signal (z-score),[14],-0.277
same,glycan array binding signal (z-score),[15],-0.251
same,glycan array binding signal (z-score),[16],-0.089
same,glycan array binding signal (z-score),[17],-0.31
same,glycan array binding signal (z-score),[18],-0.157
same,glycan array binding signal (z-score),[19],-0.329
same,glycan array binding signal (z-score),[20],-0.178
same,glycan array binding signal (z-score),[21],-0.049
same,glycan array binding signal (z-score),[22],-0.213
same,glycan array binding signal (z-score),[23],-0.327
same,glycan array binding signal (z-score),[24],0.018
same,glycan array binding signal (z-score),[25],-0.239
same,glycan array binding signal (z-score),[26],-0.344
same,glycan array binding signal (z-score),Neu5Ac(a2-6)GalNAc,-0.43
same,glycan array binding signal (z-score),[27],-0.302
same,glycan array binding signal (z-score),[28],-0.282
same,glycan array binding signal (z-score),[29],-0.135
same,glycan array binding signal (z-score),[30],-0.128
same,glycan array binding signal (z-score),Neu5Ac(a2-8)Neu5Ac,-0.14
same,glycan array binding signal (z-score),[31],-0.033
same,glycan array binding signal (z-score),[32],-0.187
same,glycan array binding signal (z-score),[33],-0.098
same,glycan array binding signal (z-score),[34],-0.282
same,glycan array binding signal (z-score),[35],-0.093
same,glycan array binding signal (z-score),[36],-0.222
same,glycan array binding signal (z-score),[37],0.27
same,glycan array binding signal (z-score),[38],-0.38
same,glycan array binding signal (z-score),[39],-0.033
same,glycan array binding signal (z-score),Neu5Ac(b2-6)GalNAc,-0.069
same,glycan array binding signal (z-score),[40],-0.228
same,glycan array binding signal (z-score),[41],-0.232
same,glycan array binding signal (z-score),[42],-0.078
same,glycan array binding signal (z-score),[43],-0.174
same,glycan array binding signal (z-score),[44],-0.263
same,glycan array binding signal (z-score),Neu5Gc(a2-3)Gal(b1-4)Glc,1.72
same,glycan array binding signal (z-score),[45],-0.247
same,glycan array binding signal (z-score),[46],0.101
same,glycan array binding signal (z-score),[47],-0.271
same,glycan array binding signal (z-score),Neu5Gc(a2-6)GalNAc,-0.261
same,glycan array binding signal (z-score),[48],-0.251
